# Screen size: about 350,000 compounds; about 31,000 (8.9%) were called active. The shares of active, inactive and inconclusive entries below differ from those in the screen. Calls follow the shape of the dose curve; as a rule, active = well fitted inhibition curve with a large enough effect; inconclusive = small, poorly fitted or top-dose-only effect; inactive = no such curve, though single readings can be large or run the other way. Where the call is inconclusive, the potency comes from a doubtful curve fit.
# Target: Histone-lysine N-methyltransferase EHMT2 (Homo sapiens) (UniProt Q96KQ7)
# Experiment: qHTS Assay for Inhibitors of Histone Lysine Methyltransferase G9a; also: nearly all actives have a fitted effect of over 75% in size
# Conditions: G9a H3K9 monomethylation, AlphaScreen, 2 h; activity, negative = inhibition: at 59 µM (top of the series) unless noted
# Procedure, shortened: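 Using a bead-based AlphaScreen, monomethylated H3K9 product from 2 h room-temperature reactions (G9a 20 nM, peptide 500 nM, SAM 20 uM) was detected with 0.5 ug/mL rabbit anti-H3K9me1 antibody.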
# % is scaled to controls: 0 for no effect and ±100 for the full control effect; potency is read from the fitted curve at half-maximal effect; tags tell the direction and shape of the fitted curve.
# Sequence of UniProt Q96KQ7 (Q96KQ7 whole entry, looked up): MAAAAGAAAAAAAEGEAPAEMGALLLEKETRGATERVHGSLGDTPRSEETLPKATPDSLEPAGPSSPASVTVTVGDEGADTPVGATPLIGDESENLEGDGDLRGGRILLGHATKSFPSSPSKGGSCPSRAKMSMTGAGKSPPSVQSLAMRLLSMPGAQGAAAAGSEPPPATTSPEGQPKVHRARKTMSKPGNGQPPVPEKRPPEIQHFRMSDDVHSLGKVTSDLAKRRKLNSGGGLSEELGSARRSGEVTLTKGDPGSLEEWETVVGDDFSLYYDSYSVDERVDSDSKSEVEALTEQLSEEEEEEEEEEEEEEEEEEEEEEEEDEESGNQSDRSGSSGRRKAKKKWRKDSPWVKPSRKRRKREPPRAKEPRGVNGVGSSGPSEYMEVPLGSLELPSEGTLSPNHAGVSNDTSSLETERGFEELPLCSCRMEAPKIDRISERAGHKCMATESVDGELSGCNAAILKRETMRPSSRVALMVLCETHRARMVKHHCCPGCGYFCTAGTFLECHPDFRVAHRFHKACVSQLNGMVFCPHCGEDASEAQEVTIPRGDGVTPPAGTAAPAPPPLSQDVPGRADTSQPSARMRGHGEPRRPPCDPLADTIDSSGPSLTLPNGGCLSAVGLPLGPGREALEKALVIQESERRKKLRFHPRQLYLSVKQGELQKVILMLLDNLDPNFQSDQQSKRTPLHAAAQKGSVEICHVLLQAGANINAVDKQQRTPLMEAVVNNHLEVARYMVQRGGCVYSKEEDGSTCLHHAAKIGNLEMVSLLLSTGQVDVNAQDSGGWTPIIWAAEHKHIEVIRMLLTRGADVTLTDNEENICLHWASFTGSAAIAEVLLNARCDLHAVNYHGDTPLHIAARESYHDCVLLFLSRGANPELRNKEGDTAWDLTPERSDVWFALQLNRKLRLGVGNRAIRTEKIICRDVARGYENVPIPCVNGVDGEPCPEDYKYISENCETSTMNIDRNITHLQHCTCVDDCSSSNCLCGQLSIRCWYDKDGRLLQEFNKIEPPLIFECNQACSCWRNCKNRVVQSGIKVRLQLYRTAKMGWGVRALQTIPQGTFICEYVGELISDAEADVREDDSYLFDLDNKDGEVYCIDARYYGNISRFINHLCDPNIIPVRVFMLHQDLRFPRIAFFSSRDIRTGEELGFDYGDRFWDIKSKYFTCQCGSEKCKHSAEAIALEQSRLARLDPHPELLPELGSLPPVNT
Compound,Potency,"activity, negative = inhibition"
CC1(C)N=C(c2ccccn2)C(C)(C)N1O,"inconclusive: 2 µM [inhibitor, partial curve, poor fit]",–
Fc1ccc(-c2ccc(-c3nn4c(-c5ccco5)nnc4s3)o2)cc1,active: 15.8 µM,–
CCC(=O)Nc1ccc(OCc2nc3ccccc3s2)cc1,active: 10 µM,–
COc1ccc(C(=O)OCC(=O)c2cc(C)n(CC3CCCO3)c2C)cc1[N+](=O)[O-] (configuration not stated),"inconclusive: 4.47 µM [inhibitor, single point]",–
COc1ccccc1N(/N=C1\Sc2ccccc2C1=O)C(C)=O,–,inactive: 4.72% [at 12.7 µM]
C[C@@H]1CC=C[C@H]2[C@H]1C(=O)N(Cc1ccccc1)[C@H]2c1ccc(-c2ccc(N(C)C)cc2)cc1F,"inconclusive: 35.5 µM [inhibitor, single point]",–
CCC1CCCCN1Cc1nc2ccccc2c(=O)n1CC(C)=O (configuration not stated),"inconclusive: 70.8 µM [inhibitor, partial curve]",–
CCOC(=O)c1ccc(NC(=O)Cn2cc(S(=O)(=O)Cc3ccccc3F)c3ccccc32)cc1,–,inactive: -3.92%
Cc1ccn(CC(=O)N2CCCC(N3CCN(Cc4ccc5c(c4)OCO5)CC3)C2)n1 (configuration not stated),"inconclusive: 12.6 µM [inhibitor, partial curve]",–
COc1ccc2ccc3c(c2c1)N=C[C@]1(O3)N(C)c2ccccc2C1(C)C,–,inactive: 28.8% [at 0.501 µM]
CN(C)c1ncnc2ccc(-c3ccoc3)cc12,–,inactive: 1.82% [at 0.501 µM]
O=c1[nH]c(CSc2nc3ccccc3s2)nc2ccccc12,–,inconclusive: -83.8% [inhibitor]
CCCCC(=O)Nc1ccc(NC(=O)CC)cc1OC,"inconclusive: 89.1 µM [inhibitor, single point]",–
c1ccc(-c2cn3c(n2)SCC3)cc1,"inconclusive: 11.2 µM [inhibitor, partial curve]",–
COc1ccccc1NC(=S)NNC(=O)c1cc(C)n(C)n1,"inconclusive: 25.1 µM [inhibitor, single point]",–
O=C(NCc1ccc(Cl)cc1)c1cc2c(nc3sccn32)s1,active: 35.5 µM,–
CCN(Cc1ccccc1)Cc1c(O)ccc2c(=O)c(-c3ccccc3Cl)coc12,–,inactive: 7.84%
N=c1c2c(-c3ccccc3)c(-c3ccccc3)n(Cc3ccco3)c2ncn1CCCN1CCOCC1,"inconclusive: 50.1 µM [inhibitor, partial curve]",–
CCN(Cc1ccccc1)C1CCN(Cc2ccc(SC)cc2)CC1,"inconclusive: 50.1 µM [inhibitor, partial curve, poor fit]",–
CC(C)N1CCc2c(sc(NC(=S)NC(=O)c3ccccc3)c2C#N)C1,active: 10 µM,–
CCOc1cc(N2CCOCC2)c(OCC)cc1NC(=O)CCS(=O)(=O)c1ccc(Cl)cc1,active: 22.4 µM,–
NC(=O)C1CCN(C(=O)CN2CCN(c3cccc(C(F)(F)F)c3)CC2)CC1,–,inactive: -24.7% [at 102 µM]
COCCSc1ccccc1C(=O)Nc1ccccc1C#N,"inconclusive: 35.5 µM [inhibitor, partial curve, poor fit]",–
Cc1nn(CCc2nn[nH]n2)c2nc(-c3ccc(C4CCCCC4)cc3)cc(C(F)(F)F)c12,"inconclusive: 44.7 µM [inhibitor, partial curve]",–

Compound,Potency,"activity, negative = inhibition"
Cc1cc(C)c(OCCOCCN2CCNCC2)c(C)c1,"inconclusive: 89.1 µM [inhibitor, single point]",–
O=C(NNC(=S)NC(=O)c1ccc(Br)cc1)c1ccc([N+](=O)[O-])cc1,–,inactive: -9.14% [at 0.501 µM]
OC(COC1CCCCC1)CN1CCN(c2ccccc2)CC1 (configuration not stated),–,inactive: -24.6% [at 102 µM]
C=CCOC(=O)C(C#N)c1nc2ccccc2nc1N1CCN(c2ccccc2OCC)CC1 (configuration not stated),"inconclusive: 28.2 µM [inhibitor, single point]",–
CCN(CC(=O)NCc1ccncc1)S(=O)(=O)c1cc(Cl)ccc1Cl,"inconclusive: 89.1 µM [inhibitor, partial curve, poor fit]",–
COc1ccccc1NCC(=O)N/N=C(\C)c1ccc(Br)s1,"inconclusive: 1 µM [inhibitor, full curve]",–
CCCC(c1nnnn1Cc1cccs1)N1CCN(C2CCCC2)CC1 (configuration not stated),"inconclusive: 0.251 µM [inhibitor, full curve, poor fit]",–
CCOC(=O)C1CCCN(C(=O)CN(c2ccc(OC)cc2)S(=O)(=O)c2c(C)noc2C)C1 (configuration not stated),"inconclusive: 89.1 µM [inhibitor, single point]",–
CC(=O)c1cccc(NC(=O)c2ccc3c(c2)c(C)c(C)n3Cc2ccc(Cl)cc2)c1,–,inactive: -5.26%
COc1ccc(OC)c(/C=C2\SC(=S)N(NS(=O)(=O)c3ccc(C)cc3)C2=O)c1,–,inactive: 5.31% [at 2.33 µM]
O=C(NNC(=O)c1cnccc1C(F)(F)F)c1ccc(Cl)cc1,"inconclusive: 50.1 µM [inhibitor, partial curve, poor fit]",–
Cc1cnc(C(=O)OCC(=O)Nc2ccc3c(c2)OCCO3)cn1,"inconclusive: 14.1 µM [inhibitor, single point]",–
CCOc1cccc(C(=O)N2CCCCC2c2cccnc2)c1 (configuration not stated),"inconclusive: 22.4 µM [inhibitor, partial curve, poor fit]",–
COc1ccc(OCc2n(CC(=O)OC3CC(C)CCC3C(C)C)c3ccccc3[n+]2C)cc1 (configuration not stated),"inconclusive: 28.2 µM [inhibitor, partial curve, poor fit]",–
O=C(Nc1ccc(S(=O)(=O)N2CCc3ccccc3C2)cc1)C1CCCO1 (configuration not stated),–,inactive: 1.7%
CC1C/C(=C\c2ccccc2[N+](=O)[O-])c2nc3ccccc3c(C(=O)O)c2C1 (configuration not stated),"inconclusive: 89.1 µM [inhibitor, single point]",–
N#Cc1ccccc1CSc1ncccc1C(=O)O,–,inactive: -6.88% [at 102 µM]
CCn1cc(SCC(N)=O)c2ccccc21,"inconclusive: 79.4 µM [inhibitor, partial curve, poor fit]",–
O=C(COC(=O)/C=C/c1ccco1)NCc1ccco1,active: 31.6 µM,–
CC(=O)Nc1ccc(NS(=O)(=O)c2ccc(Cl)s2)cc1,inactive,–
CC(NC(=O)CSc1ncnc2nc[nH]c12)c1ccccc1 (configuration not stated),"inconclusive: 89.1 µM [inhibitor, partial curve, poor fit]",–
O=C(CN1CCN(Cc2ccccc2)CC1)N/N=C\C=C/c1ccco1,"inconclusive: 20 µM [inhibitor, single point]",–
C/C(CC(=O)Nc1ccc(Cl)cc1Cl)=N\NC(=O)C(=O)N1CCCC1,"inconclusive: 6.31 µM [inhibitor, full curve, poor fit]",–
O=C1C(=O)N(CCN2CCOCC2)C(c2cccnc2)/C1=C(/O)c1ccc(Cl)cc1 (configuration not stated),active: 50.1 µM,–

Compound,Potency,"activity, negative = inhibition"
COC(=O)/C(C#N)=C1/SC=C(C)N1c1ccccc1,–,inactive: 2.06%
O=C(CN1C(=O)CCc2cc(S(=O)(=O)N3CCOCC3)ccc21)NCc1ccccc1Cl,–,inactive: -2.58% [at 12.7 µM]
N#Cc1nc(-c2ccc(F)cc2)oc1N1CCCC1,"inconclusive: 50.1 µM [inhibitor, partial curve, poor fit]",–
CS(=O)(=O)Nc1ccc(C2=NN(S(C)(=O)=O)C(c3cccs3)C2)cc1 (configuration not stated),–,inactive: -27.8% [at 102 µM]
CC1CC(C)CN(S(=O)(=O)c2cccc(C(=O)N3CCN(c4ccc(F)cc4)CC3)c2)C1 (configuration not stated),–,inactive: 12.5% [at 0.501 µM]
Nc1nc(N)c2sc3nc4c(cc3c2n1)CCC4,–,inactive: 9.54%
Cc1ccc(NC(=O)c2cc(S(=O)(=O)N(C)C)ccc2N2CCCC2)cc1F,"inconclusive: 28.2 µM [inhibitor, single point]",–
COc1ccc(Cn2nnnc2C(c2ccc(C)cc2)N2CCN(C3CCCC3)CC2)cc1 (configuration not stated),"inconclusive: 28.2 µM [inhibitor, partial curve, poor fit]",–
CCC(C)(C)C1CCC2(CC1)NC(=O)N(CC(=O)N(C)Cc1ccc3c(c1)OCCO3)C2=O (configuration not stated),–,inactive: 13.1%
CCSc1nnc2c(n1)OC(c1sccc1C)N(C(C)=O)c1ccccc1-2 (configuration not stated),"inconclusive: 31.6 µM [inhibitor, single point]",–
CCc1ccc2c(CC(=O)NNC(=O)c3ccncc3)coc2c1,–,inactive: 0.312% [at 12.7 µM]
Cc1cc(CNCc2c(C(=O)N(C)Cc3ccccc3)nc3ccccn23)nn1C,"inconclusive: 89.1 µM [inhibitor, single point]",–
O=c1nc(SCc2c(F)cccc2Cl)nc(-c2ccccc2)[nH]1,–,inactive: -3.86% [at 102 µM]
Cc1ccc(C(=O)NNC(=O)c2ccccc2O)cc1S(=O)(=O)N1CCCCC1,–,inactive: 4.55% [at 102 µM]
CC1(C)CC(=O)C2=C(C1)NC1=C(C(=O)c3ccccc31)C2c1ccc(O)cc1 (configuration not stated),active: 25.1 µM,–
COc1cc(C(=O)Nc2ccc(C(=O)O)cc2)ccc1OC(C)=O,–,inactive: -22.4% [at 102 µM]
COc1ccc(S(=O)(=O)NNC(=O)Nc2ccc(C)cc2C)c(OC)c1,–,inactive: 2.31% [at 102 µM]
CNc1c(N)n(Cc2ccccc2)c(=O)[nH]c1=O,"inconclusive: 20 µM [inhibitor, partial curve, poor fit]",–
c1ccc(-c2nnc(CN3CCN(C(c4ccccc4)c4ccccc4)CC3)o2)cc1,"inconclusive: 50.1 µM [inhibitor, partial curve, poor fit]",–
COc1ccc(N(CC(=O)NCc2ccco2)S(C)(=O)=O)cc1,"inconclusive: 89.1 µM [inhibitor, single point]",–
Cc1nc2ccccc2c(=O)n1CCN1CCOCC1,–,inactive: 4.83%
O=C(c1ccncc1)N1CCC[C@@]2(CCN(Cc3ccncc3)C2)C1,–,inactive: 4.95% [at 12.7 µM]
Fc1ccc(COc2ccc(Br)cc2CNCC2CCCO2)cc1 (configuration not stated),active: 50.1 µM,–
COc1cc(Cl)c(NC2=CC(=O)C(=O)c3ccccc32)c(OC)c1,"inconclusive: 35.5 µM [inhibitor, single point]",–

# From PubChem BioAssay AID504332 (National Center for Advancing Translational Sciences (NCATS), 2011)
